{"source": "PubChem BioAssay AID743279", "about": "(National Center for Advancing Translational Sciences (NCATS), 2014)", "note": "Among all 360,000 compounds or so, about 17,000 (4.7%) were called active. The shares of active, inactive and inconclusive entries below differ from those in the screen. Rule as the data show it: active = activity change below about -50%; inconclusive = mostly about -30% to -49%; inactive = weaker than that. % is scaled to controls: 0 for no effect and ±100 for the full control effect.", "data": [{"assay": "qHTS for Inhibitors of Inflammasome Signaling: IL-1-beta AlphaLISA Primary Screen", "settings": "THP-1 LPS/ATP IL-1B secretion, 16 h; at 57.5 µM, active compounds read low", "method_in_brief": "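THP-1 cells pretreated 1 hr with compounds (up to 57.5 uM final), then stimulated with LPS (250 ng/mL final) plus ATP (1.25 mM final); secreted IL-1B measured by AlphaLISA after 16 hr, decreased signal indicating inhibition.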", "values": [{"smiles": "O=C(Nc1ccc(F)cc1F)c1c(C(F)(F)F)ccnc1Oc1ccc(Cl)cc1", "activity change": "inactive: 3.62%"}, {"smiles": "COc1ccc(-c2noc(CSc3nnc(-c4ccncc4)n3-c3ccc(F)cc3)n2)cc1OC", "activity change": "inconclusive: -49.4%"}, {"smiles": "COc1cc(NC(=O)N2CCc3nc(Nc4cc(Cl)cc(Cl)c4)ncc3C2)cc(OC)c1OC", "activity change": "inconclusive: -42.9%"}, {"smiles": "O=C(COc1cccnc1[N+](=O)[O-])N1CCC(Cc2ccccc2)CC1", "activity change": "active: -67.5%"}, {"smiles": "COc1ccc(Cn2nnc3c(=O)[nH]c(C4CCCN(C(=O)c5ccccc5)C4)nc32)cc1", "note": "(stereo not given)", "activity change": "inactive: 12.2%"}, {"smiles": "COc1ccc(C(=O)N/C(=C\\c2cn(C)c3ccccc23)C(=O)NCCCn2ccnc2)cc1", "activity change": "inactive: 0%"}, {"smiles": "COc1cc(-c2coc3c(C(=O)NC4CCCCC4)cccc23)ccc1O", "activity change": "inconclusive: -31.7%"}, {"smiles": "COc1cc2nc(SCc3c(C)noc3C)n(CCC3=CCCCC3)c(=O)c2cc1OC", "activity change": "inconclusive: -46.1%"}, {"smiles": "CC(Sc1c[nH]c2ccccc12)C(=O)O", "note": "(stereo not given)", "activity change": "inactive: 32.2%"}, {"smiles": "O=C(Nc1ccccc1N1CCN(C(=O)c2ccc(Cl)cc2)CC1)c1ccc2c(c1)OCO2", "activity change": "inactive: 8.59%"}, {"smiles": "C=C(CN(C)C)C(=O)c1cc(C)ccc1C", "activity change": "active: -101%"}, {"smiles": "O=C(CSc1nccc(-c2cccs2)n1)Nc1ccccc1", "activity change": "inconclusive: -33.2%"}, {"smiles": "CCOC(=O)CC(S(=O)(=O)c1ccccc1)S(=O)(=O)c1ccccc1", "activity change": "inconclusive: -48.3%"}, {"smiles": "Cc1nc2sccn2c(=O)c1CCN1CCC(=C(c2ccc(F)cc2)c2ccc(F)cc2)CC1", "activity change": "inconclusive: -31.7%"}, {"smiles": "C/C(N)=C(/C#N)C(=O)COC(=O)c1cc(-c2ccc(Br)cc2)nc2ccccc12", "activity change": "inconclusive: -30.7%"}, {"smiles": "CCc1ccc(C(O)c2ncc(-c3ccccc3C)[nH]2)cc1", "note": "(stereo not given)", "activity change": "inconclusive: -46.5%"}, {"smiles": "CCCc1nn2c(=O)cc(CSCC(=O)Nc3cccc(OC)c3)nc2s1", "activity change": "inactive: 7.68%"}, {"smiles": "COc1cc(CNC2CCCC2)cc(Cl)c1OCc1ccccc1F", "activity change": "active: -76.3%"}, {"smiles": "COc1cc(NC(=O)Cn2ncc(Cl)c(Cl)c2=O)c(C)cc1[N+](=O)[O-]", "activity change": "active: -95.2%"}, {"smiles": "CCCCOc1ccccc1NC(=O)CC1Nc2ccccc2NC1=O", "note": "(stereo not given)", "activity change": "inconclusive: -35.7%"}, {"smiles": "COc1ccc(OC)c(NC(=O)C2C3C=CC(C3)C2C(=O)NCc2ccccn2)c1", "note": "(stereo not given)", "activity change": "inconclusive: -37.5%"}, {"smiles": "C[C@@H]1CCCCO[C@H](CN(C)C(=O)NC2CCCCC2)[C@@H](C)CN([C@H](C)CO)C(=O)c2cc(NC(=O)c3ccccc3)ccc2O1", "activity change": "inconclusive: -33.3%"}, {"smiles": "CCN1CCN(CCCNC(=O)c2ccc3c(c2)NC(=O)/C(=C\\c2cccc(C)c2)S3)CC1", "activity change": "active: -86.7%"}, {"smiles": "Cc1ccccc1NC(=O)OCc1ccccc1", "activity change": "inconclusive: -30.4%"}, {"smiles": "COc1ccc(CCN(C)Cc2ccc(C(=O)Nc3ccccc3)cc2)cc1OC", "activity change": "inconclusive: -40.1%"}, {"smiles": "Cn1ncc([N+](=O)[O-])c1C(=O)Nc1ccc(Cl)cc1", "activity change": "inconclusive: -30.6%"}, {"smiles": "Cc1ccc(OCCNC(=O)/C=C/c2ccc([N+](=O)[O-])cc2)cc1C", "activity change": "inconclusive: -49.8%"}, {"smiles": "COc1cc2c(cc1OC)C(c1cccs1)N(C(=O)c1ccc(S(=O)(=O)N(C)C)cc1)CC2", "note": "(stereo not given)", "activity change": "inconclusive: -30.5%"}, {"smiles": "C/C(CC(=O)Nc1ccc2c(c1)OCCO2)=N\\NC(=O)COc1ccc(C)cc1Br", "activity change": "inactive: 3.01%"}, {"smiles": "CC1=C(C(=O)OC2CCCCCC2)C(c2ccc(C)o2)C2=C(CCCC2=O)N1", "note": "(stereo not given)", "activity change": "inconclusive: -41.5%"}, {"smiles": "O=S(=O)(Nc1ccc(Br)cc1)c1cccc2cccnc12", "activity change": "inactive: -13.8%"}, {"smiles": "Cc1ccc2[nH]c3c(=O)n(CCCN4CCOCC4)cnc3c2c1", "activity change": "inactive: 1.05%"}, {"smiles": "Cc1ccc(S(=O)(=O)c2nc(S(C)(=O)=O)sc2N2CCC3(CC2)OCCO3)cc1", "activity change": "inconclusive: -44.2%"}, {"smiles": "N#Cc1c(NC(=O)c2nc3ncccn3n2)sc2c1CCCCC2", "activity change": "inactive: 6.67%"}, {"smiles": "C[C@@H]1CN([C@@H](C)CO)C(=O)CCCn2cc(nn2)CO[C@H]1CN(C)S(=O)(=O)c1ccc(Cl)cc1", "activity change": "inactive: -13.4%"}, {"smiles": "Cc1c(Cl)cccc1NC(=S)Nn1cnnc1", "activity change": "inconclusive: -32.9%"}, {"smiles": "O=C(O)c1ccc(-n2nc(C(F)(F)F)c3c2CCCC3)cc1", "activity change": "inconclusive: -35.4%"}, {"smiles": "CN(C)CCN(CC1CCCN(Cc2ccccc2F)C1)C(=O)c1ccc(Cl)cc1", "note": "(stereo not given)", "activity change": "inconclusive: -31.3%"}, {"smiles": "CC(C)Oc1ccc(C(=O)Nc2ccc(NC(=O)c3ccco3)c(Cl)c2)cc1", "activity change": "inconclusive: -33.2%"}, {"smiles": "Cc1ccccc1-c1nc(C#N)c(N2CCCCC2)o1", "activity change": "inconclusive: -40.1%"}, {"smiles": "CCOC(=O)N1CCN(c2nc(-c3cccs3)nc3ccccc23)CC1", "activity change": "inconclusive: -39.7%"}, {"smiles": "COC(=O)CCCC(=O)N(C)CC1CCCN(CCc2ccccc2C)C1", "note": "(stereo not given)", "activity change": "inactive: -1.14%"}, {"smiles": "CCOc1ccc(C(=O)Nc2ccc(Cl)cn2)cc1Cl", "activity change": "inconclusive: -49.4%"}, {"smiles": "COc1ccccc1N1CCN(CCNC(=O)Nc2cccc(C)c2C)CC1", "activity change": "active: -85.8%"}, {"smiles": "CCOC(=O)c1cc(-c2ccc(F)cc2)n(CC(=O)Nc2nccs2)c1C", "activity change": "inconclusive: -36.1%"}, {"smiles": "NC(=O)C1CCN(CC(O)COc2ccc(-c3ccccc3)cc2)CC1", "note": "(stereo not given)", "activity change": "inconclusive: -41.6%"}, {"smiles": "COc1ccc(OC)c(NC(=O)COC(=O)c2c(C)noc2C)c1", "activity change": "inconclusive: -31%"}, {"smiles": "Cc1cc2n(n1)C(c1ccc(O)cc1)Nc1ccccc1-2", "note": "(stereo not given)", "activity change": "inconclusive: -30.4%"}, {"smiles": "Cc1cc(C)c2c(c1)/C(=N/NC(=O)c1ccc(O)cc1)CCC2", "activity change": "inconclusive: -33.8%"}, {"smiles": "Cc1ccc(Cl)cc1N1CCN(Cc2nnnn2Cc2ccco2)CC1", "activity change": "inconclusive: -35.6%"}, {"smiles": "Cc1cc(NC(=O)COc2cccc(Oc3ccccc3)c2)no1", "activity change": "inactive: 27.2%"}, {"smiles": "Fc1ccc(Nc2nc(N3CCOCC3)nc(N3CCOCC3)n2)cc1", "activity change": "inconclusive: -41%"}, {"smiles": "CCc1sc(C(C2C(=O)CC(C)(C)CC2=O)C2C(=O)CC(C)(C)CC2=O)cc1[N+](=O)[O-]", "activity change": "active: -248%"}, {"smiles": "Clc1ccccc1Nc1ncnc2c1nnn2Cc1ccccc1", "activity change": "inconclusive: -43.3%"}, {"smiles": "OC(CNCc1ccccc1)(c1ccc(F)cc1)c1ccc(F)cc1", "activity change": "inconclusive: -40.9%"}]}]}
